Each structure is given as a SMILES string. The campaign covered roughly 340,000 compounds. About 6,900 (2%) were called active. No stated cut-off is given here; in the data, active means inhibition above about 30%; inactive means below that, where a call was filed. This is a selection; strong and weak results do not stand in their true shares. The source gives no active or inactive call for entries shown without one.

Sequence of UniProt P14416 (P14416 whole entry, looked up): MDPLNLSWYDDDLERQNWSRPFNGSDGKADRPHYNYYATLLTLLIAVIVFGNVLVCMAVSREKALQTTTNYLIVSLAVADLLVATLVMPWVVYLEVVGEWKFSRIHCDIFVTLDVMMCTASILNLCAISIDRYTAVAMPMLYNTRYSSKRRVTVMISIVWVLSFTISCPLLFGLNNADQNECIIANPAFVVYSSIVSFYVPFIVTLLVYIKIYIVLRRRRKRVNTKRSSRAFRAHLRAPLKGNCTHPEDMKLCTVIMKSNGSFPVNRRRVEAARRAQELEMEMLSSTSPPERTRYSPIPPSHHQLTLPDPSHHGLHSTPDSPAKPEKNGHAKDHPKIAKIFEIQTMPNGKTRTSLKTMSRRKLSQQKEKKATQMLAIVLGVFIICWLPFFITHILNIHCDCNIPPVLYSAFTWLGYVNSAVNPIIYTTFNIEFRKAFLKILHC

For the assay, the target named is D(2) dopamine receptor (Homo sapiens) (UniProt P14416). As to the kind of experiment: HTS Assay for Allosteric Antagonists of the Human D2 Dopamine Receptor: Primary Screen for Antagonists. Further: 0% is about no effect. The settings on record: HEK293 TREx D2 cells, calcium flux, dopamine EC80; at 10 µM; stronger effect = higher value. The procedure, abridged:
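Antagonism is scored as inhibition of an EC80 dopamine-evoked calcium signal in a force-coupled, tetracycline-inducible HEK293 T-REx D2 line, with compound present 180 s before agonist.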
Background: A change in cytosolic calcium serves as a functional read-out for many receptors and channels.
What is called inhibition is the relative decrease from the control value, in per cent. Take `COc1ccc(NS(=O)(=O)c2c(C)cc(C)cc2C)cc1`: the inhibition was active: 33.5%.
The value for `Cc1nc(SCC(=O)Nc2ccc(C(=O)O)cc2)n[nH]1` was 20.9%; that for `COc1ccc(OC)c(NC(=O)CC(=O)Nc2ccc3nc4n(c(=O)c3c2)CCCCC4)c1` was -0.682%; that for `CCOc1ccccc1C(=O)N1CCC(c2nc3ccccc3o2)CC1` was -2.7%.
For `CCc1ccccc1NC(=O)Cn1nc(N2CCN(c3ccccc3OC)CC2)ccc1=O` the value was 9.91%.
Turning to `Cc1cc(C)c(OCCOCCn2c(-c3ccc(Cl)cc3)nc3ccccc3c2=O)c(C)c1`, the inhibition is -10.8%.
The value for `Cc1ccc(C2CCN(C(=O)c3cnn(-c4ccc(C)c(C)c4)c3C3CCN(C(=O)OC(C)(C)C)CC3)C2)cc1` (stereo not given) was -0.702%.
The value for `Cc1cccc(NC(=O)N2CCC(CN3CCCCCC3)CC2)c1C` was -10.9%.
For `CC1CCN(S(=O)(=O)c2ccc3c(c2)CCN3C(=O)Nc2ccc(Br)cc2F)CC1` the value was 19.2%.
As for `O=C(Nc1ccccc1C(F)(F)F)N1CC=C(c2c[nH]c3ccccc23)CC1`, the inhibition amounted to 13.6%.
In the case of `COC(=O)CC(=O)CSc1nc2cc(C(=O)NCC(C)C)ccc2c(=O)n1CCc1ccccc1`, the inhibition came out at 12.6%.
The value for `Cc1c(Cl)ccc2sc(N3CCN(C(=O)C4CC4)CC3)nc12` was 6.76%; that for `COc1ccc(-c2onc(C)c2C)cc1S(=O)(=O)N1CCN(c2cc(C)ccc2C)CC1` was -14.2%; that for `COc1ccc(-c2cc3nc(C)c(CCC(=O)NC(C)c4ccccc4)c(C)n3n2)c(OC)c1` (stereo not given) was 5.42%.
For `CN(C)S(=O)(=O)c1cc(NC(=O)CN2CCN(c3ccccc3F)CC2)ccc1Cl` the value was active: 53.2%; for `Cc1nn(C(=O)c2cccc([N+](=O)[O-])c2C)c(C)c1S(=O)(=O)N1CCCCCC1`, -15.3%.
Consider `CCOc1ccc(N(CC)S(=O)(=O)N2CCCC(C(=O)Nc3ccc(OC)c(Cl)c3)C2)cc1` (stereo not given), for which the inhibition amounted to 1.72%.
For `Cc1cccc(NC(=O)CN2C(=O)CSc3ccc(S(=O)(=O)N4CCCC4)cc32)c1C` the value was -10.5%.
The value for `COc1cccc(NC(=O)CSc2c3c(nc4ccccc24)CCCC3)c1` was 16.4%.
For `COc1ccc(OC)c(NC(=O)N2CC3CCCN3c3ccccc32)c1` (stereo not given) the value was -2.67%; for `O=C(CC1NCCc2ccccc21)Nc1ccc(Oc2ccccc2)cc1` (stereo not given), active: 60.3%; for `CCOC(=O)c1cccc(NC(=O)N2CC=C(c3c[nH]c4ccccc34)CC2)c1`, 3.2%.
Take `CC(=O)c1ccc(NC(=O)CC2Oc3ccc(C)cc3NC2=O)cc1` (stereo not given): the inhibition was found to be 12.5%.
The value for `CCOC(=O)Cc1c(C(=O)OCC)nnc2c(-c3ccccc3)c(C)nn12` was -2.9%.
The value for `CCCNC(=O)N1[C@H](c2cccs2)[C@@H](C)C(=O)[C@@H](C)[C@@H]1c1cccs1` was -4.24%; that for `COc1cccc(N2CCN(c3ncnc4c3c(-c3ccccc3)cn4-c3cccc(C(F)(F)F)c3)CC2)c1` was 6.4%.
The value for `COc1ccccc1N1CCN(Cc2nc(N)nc(Nc3ccc(C)c(Cl)c3)n2)CC1` was active: 54.8%.
For the molecule `CCN(CC)C(=O)Cn1c(=O)n(CCc2ccccc2)c(=O)c2ccccc21`, the inhibition was -2.51%.
For `Cc1cc(Nc2ccc(Br)c(C)c2)n2nc(-c3ccco3)nc2n1` the value was 12.1%; for `COc1cc(O)cc2cc3c(c(O)c12)C(=O)CC(C)(O)O3` (stereo not given), active: 36.9%.
For `COc1ccc(S(=O)(=O)NCC(c2ccc(N(C)C)cc2)N2CCc3ccccc32)cc1F` (stereo not given) the value was 5.85%; for `Cc1cc(C)n2nc(CNS(=O)(=O)c3ccccc3)nc2n1`, 6.16%; for `CCOC(=O)c1ccccc1NC(=O)COC(=O)CC(C)(C)CC1=NS(=O)(=O)c2ccccc2N1`, 10.9%.
For `Cc1cc2nc(CCN(C(=S)NCC3CCCO3)C3CCCC3)[nH]c2cc1C` (stereo not given) the value was active: 31.2%; for `COc1cccc(NC(=O)c2oc3ccc(S(=O)(=O)N4CCCCCC4)cc3c2C)c1`, -17.6%.
With `Cc1ccc(NC(=O)c2ccc3snnc3c2)cc1C`, the inhibition amounted to 6.83%.
In the case of `COc1ccccc1NC(=O)C1CCCN(c2ncnc3onc(-c4ccc(F)cc4)c23)C1` (stereo not given), the inhibition was determined as 0.387%.
Regarding `CCC(C)NC(=O)c1c(C)oc2nc(C)nc(N3CCOCC3)c12` (stereo not given), the inhibition was -9.29%.
The value for `CCOC(=O)C(C)Sc1nc(-c2ccccc2)ccc1C#N` (stereo not given) was 9.26%; that for `COc1cccc(NC(=O)C2CCN(S(=O)(=O)c3ccc4[nH]c5c(c4c3)CCCCC5)CC2)c1` was -2.85%.
The value for `COC(=O)c1ccccc1NC(=O)c1nn(-c2ccc(OC)cc2)c(=O)c2c1c1ccccc1n2C` was 8.81%; that for `COc1cccc(NC(=O)CN(c2cccc(OC)c2)S(C)(=O)=O)c1` was active: 38.1%; that for `COc1ccc(-c2cc(C(=O)NCCc3ccc(OC)c(OC)c3)c3c(-c4ccc(F)cc4)[nH]nc3n2)cc1` was 2.28%.
For `CCOC(=O)c1ccc(NC(=O)Cn2c3ncccc3c(=O)n2-c2ccc(C)c(C)c2)cc1`, the inhibition was -4.15%.
Consider `CC1(C(=O)OCC(=O)NC(=O)NCc2ccccc2)CC1(Cl)Cl` (stereo not given), for which the inhibition was active: 31.3%.
The value for `CC(C)CCNC(=O)C(=O)Nc1c2c(nn1-c1ccc(Cl)cc1)CSC2` was -11.3%.
The value for `c1ccc(-c2cc3c(NCC4COc5ccccc5O4)ncnc3s2)cc1` (stereo not given) was active: 31.8%; that for `CC(=O)Nc1cccc(NC(=O)CSc2ccc(-c3sc(-c4ccccc4)nc3C)nn2)c1` was -15.4%; that for `O=C(O)CCc1ccc(-c2ccccc2)n1-c1ccc(C(=O)O)cc1` was -5.17%.
For `COc1cc(OC)c2c(-c3ccccc3)cc(=O)oc2c1C(CC(=O)N1CCOCC1)c1ccc(N(C)C)cc1` (stereo not given) the value was active: 31.2%; for `Cc1cccc(Nc2nnc(-c3ccc(C)c(S(=O)(=O)N4CCN(C)CC4)c3)c3ccccc23)c1`, 10.9%; for `Cc1ccc(Cl)cc1NC(=O)Cn1c(=O)n(C(C)C)c(=O)c2oc3ccccc3c21`, 11.7%.
As to `Cc1nn2c(=O)cc(COC(=O)c3cccc(NC(=O)c4ccc(F)cc4)c3)nc2s1`, the inhibition was -9.25%.
The value for `Cc1cccc(C(C)C)c1NC(=O)c1ccc2c(c1)CCN2S(C)(=O)=O` was 22.8%.
For `CCOc1ccccc1CNC(=O)C1CCN(S(=O)(=O)c2c(C)noc2/C=C/c2ccccc2F)CC1` the value was 8.36%.
On to `CCn1c(C(=O)NCc2ccccc2OC)cc2sccc21`, for which the inhibition was determined as 5.1%.
For `COc1ccc(CC(=O)Nc2cc(-c3cn4cccnc4n3)ccc2C)cc1OC` the value was 4.79%.
The value for `CC1=C(c2ccc(C(C)C)cc2)S(=O)(=O)N=C1N1CCC(C(=O)NCc2ccccc2)CC1` was -7.39%.
The value for `COc1ccc(-n2ccnc(NCc3cccs3)c2=O)cc1OC` was 1.35%.
`COCCn1ccc2c(OCC(=O)Nc3c(C)cc(C)cc3C)cccc2c1=O`: the inhibition worked out at 9.79%.

The values are drawn from PubChem BioAssay AID485344 (National Center for Advancing Translational Sciences (NCATS), 2010).
